PubChem BioAssay (Tox21)
Several values for one entry are separate records, joined by “and”; a condition that tells them apart may be missing. Equal values may be shown once. The shares of active, inactive and inconclusive entries below differ from those in the screen. Potencies beside an inconclusive call are fits to weak or partial responses and may not hold up. Activity calls are given as the source filed them. Calls come from the whole dose curve; as a rule, active = well fitted inhibition curve with a large enough effect in the repeat runs; inconclusive = weak or mixed curves; inactive = no such curve, though single readings can be large or run the other way.

biological target: Cytochrome P450 1A2 (Homo sapiens) (UniProt P05177); experiment: Cytochrome P450 Family 1 Subfamily A Member 2 (CYP1A2) small molecule antagonists: luciferase reporter qHTS assay (AID 1671199); settings: P450-Glo CYP1A2 enzyme, luciferin luminescence, 1 h; series mostly up to 115 µM; activity change, negative = inhibition: at the top concentration; note: nearly all actives have a fitted effect of over 50% in size
Outline: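 P450-Glo CYP1A2 enzyme–proluciferin substrate mix with compound 10 min at room temperature, then NADPH regeneration 1 h at room temperature. Luciferin detection reagent added, luminescence read after 20 min; furafylline positive control.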
% is set by controls: 0 for no effect and ±100 for the full control effect; potency is the fitted concentration of half-maximal effect; tags give direction and shape of the fitted curve.

Chain of UniProt P05177 (P05177 whole entry, looked up): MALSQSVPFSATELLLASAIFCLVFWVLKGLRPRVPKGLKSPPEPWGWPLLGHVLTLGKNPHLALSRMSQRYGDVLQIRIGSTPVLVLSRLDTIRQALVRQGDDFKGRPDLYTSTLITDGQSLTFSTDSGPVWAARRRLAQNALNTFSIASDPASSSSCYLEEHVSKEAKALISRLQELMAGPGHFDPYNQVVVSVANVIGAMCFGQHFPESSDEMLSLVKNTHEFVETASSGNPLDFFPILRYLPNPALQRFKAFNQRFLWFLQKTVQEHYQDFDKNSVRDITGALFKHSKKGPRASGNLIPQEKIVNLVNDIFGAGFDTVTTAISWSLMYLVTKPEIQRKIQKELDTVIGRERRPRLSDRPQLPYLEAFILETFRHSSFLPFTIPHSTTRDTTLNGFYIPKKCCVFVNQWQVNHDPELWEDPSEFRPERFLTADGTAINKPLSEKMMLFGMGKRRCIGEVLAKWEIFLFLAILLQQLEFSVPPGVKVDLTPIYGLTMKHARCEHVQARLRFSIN

Row | SMILES | Potency | activity change, negative = inhibition
1 | CC(C)=CC1C(C(=O)OCc2cccc(Oc3ccccc3)c2)C1(C)C (configuration not stated) | inconclusive: 31.7 µM [inhibitor, partial curve] and inconclusive: 34.7 µM [inhibitor] | 
2 | CC(C)N1C(=O)c2ccccc2NS1(=O)=O | inactive | 
3 | Cl/C=C/CCl | inconclusive: 63.7 µM [inhibitor, partial curve] | 
4 | CCCOC(=O)c1ccccc1C(=O)OCCC | active: 2.03 µM and active: 3.17 µM | 
5 | COc1ccc(Cc2nccc3cc(OC)c(OC)cc23)cc1OC |  | inactive: -9.21% [at 53 µM]
6 | O=NN1CCCCCCC1 | inconclusive: 44.8 µM [inhibitor, partial curve] | 
7 | OCCOc1ccccc1 | inconclusive: 35.5 µM [inhibitor] and inconclusive: 30.9 µM [inhibitor] | 
8 | CN1[C@@H]2CC[C@H]1CC(OC(=O)c1cc(Cl)cc(Cl)c1)C2 (some centres not stated) | inconclusive: 14.4 µM [inhibitor, partial curve] | 
9 | Cc1nn(-c2cc(NS(C)(=O)=O)c(Cl)cc2Cl)c(=O)n1C(F)F | inconclusive: 39.9 µM [inhibitor, partial curve] | 
10 | O=NN(c1ccccc1)c1ccccc1 | active: 34.8 µM and inconclusive: 31.7 µM [inhibitor, partial curve] | 
11 | Cc1ncc(CNC(=O)N(CCCl)N=O)c(N)n1 | inconclusive: 34.7 µM [inhibitor, partial curve] | 
12 | CC1CCC(=O)O1 (configuration not stated) | inconclusive: 71 µM [inhibitor] | 
13 | COP(=S)(OC)SCn1nnc2ccccc2c1=O | active: 27.7 µM and active: 28.3 µM | 
14 | BrCCCCBr | inconclusive: 79.6 µM [inhibitor, partial curve, poor fit] | 
15 | CC(C)=C[C@@H]1[C@@H](C(=O)OCc2coc(Cc3ccccc3)c2)C1(C)C | inconclusive: 25.2 µM [inhibitor, full curve] and active: 27.5 µM | 
16 | OC[P+](CO)(CO)CO | inactive | 
17 | CN(C)CCc1c[nH]c2cccc(O)c12 | inconclusive: 70.3 µM [inhibitor, partial curve] | 
18 | COc1ccc(O)c(C(C)(C)C)c1 | inconclusive: 35.7 µM [inhibitor, partial curve] and active: 39.9 µM | 
19 | O=C(NC(=O)c1c(F)cccc1F)Nc1ccc(OC(F)(F)C(F)OC(F)(F)F)c(Cl)c1 (configuration not stated) | inconclusive: 34.7 µM [inhibitor, partial curve] | 

Row | SMILES | Potency | activity change, negative = inhibition
20 | CC(=O)[C@H]1CC[C@H]2[C@@H]3CC[C@H]4C[C@](C)(O)CC[C@]4(C)[C@H]3CC[C@]12C | inconclusive: 27.5 µM [inhibitor, partial curve] | 
21 | COC(=O)C(C)Oc1ccc(Oc2ccc(Cl)cc2Cl)cc1 (configuration not stated) | inconclusive: 39.9 µM [inhibitor, partial curve] | 
22 | CCOP(=S)(OCC)OP(=S)(OCC)OCC | inconclusive: 65 µM [inhibitor, partial curve] and inconclusive: 35.6 µM [inhibitor, full curve] | 
23 | C=CCOC(C)=O | inconclusive: 39.4 µM [inhibitor, partial curve] | 
24 | C[C@]12C/C(=C/O)C(=O)C[C@@H]1CC[C@@H]1[C@@H]2CC[C@@]2(C)[C@H]1CC[C@]2(C)O | inconclusive: 80.4 µM [inhibitor, partial curve, poor fit] | 
25 | O=C(CCN1CC1)OCC(CO)(COC(=O)CCN1CC1)COC(=O)CCN1CC1 | inconclusive: 44.8 µM [inhibitor, partial curve] | 
26 | [O]=[Cr][O][Cr]=[O] | inconclusive: 72.7 µM [inhibitor] | 
27 | COc1cccc(C(=O)NN(C(=O)c2cc(C)cc(C)c2)C(C)(C)C)c1C |  | inactive: -15%
28 | CCCCON=O |  | inactive: -22.4%
29 | O=S(=O)(O)F |  | inactive: -4.97%
30 | O=C(Cl)CCl | inconclusive: 71.4 µM [inhibitor, partial curve, poor fit] | 
31 | O=[N+]([O-])c1c2ccccc2cc2ccccc12 | active: 0.3 µM | 
32 | C[N+](C)(C)CCOC(=O)C(O)(c1ccccc1)c1ccccc1 |  | inactive: 2.43% [at 53 µM]
33 | FC(F)(F)c1cccc(C2=CCN(CCc3ccc4ccccc4c3)CC2)c1 | inconclusive: 12.3 µM [inhibitor, full curve] | 
34 | CC1CN1 (configuration not stated) | inconclusive: 63.3 µM [inhibitor, partial curve] | 
35 | CCCCN=C=O | inconclusive: 62.5 µM [inhibitor, partial curve] | 
36 | CCN(CC)C1CCCCC1 | inconclusive: 63.3 µM [inhibitor, partial curve] | 
37 | COC(C)(C)CCCC(C)C/C=C/C(C)=C/C(=O)OC(C)C (configuration not stated) | inconclusive: 69.8 µM [inhibitor, partial curve] | 
